Reference: publication PMC3587840 (Nature, 2010)

Biological target: T1, PLXNB1_(1–2)(D139K) (human, UniProt O43157 20-535, D139K)
T1 sequence: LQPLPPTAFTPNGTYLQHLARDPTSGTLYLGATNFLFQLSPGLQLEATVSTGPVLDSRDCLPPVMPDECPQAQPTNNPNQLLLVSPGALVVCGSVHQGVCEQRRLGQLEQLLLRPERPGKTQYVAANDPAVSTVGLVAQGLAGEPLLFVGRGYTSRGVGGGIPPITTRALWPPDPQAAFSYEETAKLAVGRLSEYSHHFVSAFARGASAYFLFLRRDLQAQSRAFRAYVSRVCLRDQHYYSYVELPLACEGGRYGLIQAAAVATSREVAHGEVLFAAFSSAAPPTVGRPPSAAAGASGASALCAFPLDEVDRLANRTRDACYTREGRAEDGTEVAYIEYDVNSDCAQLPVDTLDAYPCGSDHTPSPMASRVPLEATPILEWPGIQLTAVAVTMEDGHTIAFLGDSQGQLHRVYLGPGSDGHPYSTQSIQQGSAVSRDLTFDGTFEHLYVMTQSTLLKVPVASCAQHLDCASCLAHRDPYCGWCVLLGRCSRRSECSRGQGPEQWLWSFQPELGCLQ
Assay: SPR

B1: human SEMA4D_(ecto), C-terminal His-tag (domain or fragment)
chain: not shown
fold weaker binding than wild type: > 9 fold
